# PubChem BioAssay AID1159614 (National Center for Advancing Translational Sciences (NCATS), 2016)
# About 65 (0.1%) of roughly 45,000 compounds were called active. Calls come from the whole dose curve; as a rule, active = well fitted activation curve with a large enough effect; inconclusive = small, poorly fitted or top-dose-only effect; inactive = no such curve, though single readings can be large or run the other way. The list shows a part of the results.
# Target: Galactocerebrosidase (Homo sapiens) (UniProt P54803)
# Chain of UniProt P54803 (P54803 whole entry, looked up): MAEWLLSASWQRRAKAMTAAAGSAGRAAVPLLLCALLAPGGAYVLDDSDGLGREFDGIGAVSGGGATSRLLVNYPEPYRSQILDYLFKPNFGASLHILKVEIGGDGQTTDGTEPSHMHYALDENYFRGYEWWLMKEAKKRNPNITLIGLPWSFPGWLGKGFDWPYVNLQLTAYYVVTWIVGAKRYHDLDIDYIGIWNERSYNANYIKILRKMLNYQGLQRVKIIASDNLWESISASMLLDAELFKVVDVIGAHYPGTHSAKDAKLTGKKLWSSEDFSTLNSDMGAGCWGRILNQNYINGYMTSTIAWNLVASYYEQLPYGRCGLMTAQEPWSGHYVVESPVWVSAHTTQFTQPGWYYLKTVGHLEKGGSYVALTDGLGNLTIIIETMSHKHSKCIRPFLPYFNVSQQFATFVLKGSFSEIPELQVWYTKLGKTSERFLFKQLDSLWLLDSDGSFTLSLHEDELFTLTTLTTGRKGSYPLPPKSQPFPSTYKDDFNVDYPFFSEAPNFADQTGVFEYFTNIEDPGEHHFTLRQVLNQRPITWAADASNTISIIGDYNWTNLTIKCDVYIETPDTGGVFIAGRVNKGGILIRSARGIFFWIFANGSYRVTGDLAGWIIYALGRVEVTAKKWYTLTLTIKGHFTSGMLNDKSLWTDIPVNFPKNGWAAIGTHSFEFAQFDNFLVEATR
# Test: A Novel Cell-Based Assay to Identify Small Molecules for B -Galactocerebrosidase; note: 0% is about no effect; nearly all actives have a fitted effect of over 65% in size
# Conditions: 145M-Twi-hGALC-G270D cells (Twitcher mouse brain line with human GALC G270D), HMU-beta-Gal fluorescence, 48 h; series mostly up to 57.5 µM; activation: at the top concentration
# Summary of the method: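 Fluorescence readout: HMU-β-gal cleavage by mutant GALC (0.1 mM final, citrate/phosphate pH 5.2 with 1 mg/mL taurocholate), stopped with carbonate/bicarbonate plus Triton X-100. Cells: murine Twitcher 145M-Twi expressing human G270D GALC; qHTS for activators.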
row,Structure (SMILES),activation
1,CCN(CC)c1ccc(C(=O)NCc2ccc3c(c2)CCN3C(C)=O)cc1,inactive: -18.8%
2,CC(C)CC(=O)Nc1c(C(=O)N2CCN(c3ccccc3F)CC2)oc2ccccc12,inactive: -29%
3,CC(C(=O)Nc1ccccc1C(F)(F)F)n1nc(-c2ccccc2)c2c(c1=O)CCCC2 (stereo not given),inactive: -0.0805%
4,Cc1ncc(CO)c2c1Oc1nc(-c3ccccc3)nc(SCC(=O)Nc3cccc(C(F)(F)F)c3)c1C2,inactive: -0.777%
5,CCOc1ccc(N(CC)C(=O)CSc2n[nH]c(-c3ccccc3)n2)cc1,inactive: -1.76%
6,CCn1cc(C(=O)NCc2ccccc2Cl)c(=O)c2cc(S(=O)(=O)N3CCCCC3)ccc21,inactive: -19%
7,Cc1sc2c(c1C)c(=O)n(-c1cccc(C(F)(F)F)c1)c(=O)n2Cc1ccccc1C#N,inactive: -12.1%
8,Cc1ccccc1NC(=O)CN1C(=O)CCn2nc(-c3cccn3C)cc21,inactive: -11%
9,Cc1ccc(OCCCCn2c(CCNC(=O)C(C)(C)C)nc3ccccc32)cc1,inactive: -14.3%
10,Cc1ccccc1-c1noc(CSc2nnc(-c3ccncc3)n2-c2ccc(F)cc2)n1,inactive: -3.94%
11,CCCCn1c(-c2ccc(C)cc2)c(C)n2c3c(=O)n(C)c(=O)n(C)c3nc12,inactive: -3.85%
12,CC1=C(C(=O)Nc2cccnc2)C(c2ccccc2)n2nc(SCc3ccccc3F)nc2N1 (stereo not given),inactive: 4.53%
13,O=C(Cc1ccccc1)Nc1cccc(-c2nc3cccnc3s2)c1,inactive: -4.67%
14,O=C(NC1CCCC1)c1ccc2c(c1)N(Cc1ccccc1F)C(=O)c1ccccc1S2,inactive: -17.1%
15,Cc1oc(-c2ccc(C(=O)NCc3ccccc3)cc2)nc1CS(=O)(=O)c1ccccc1,inactive: -16.2%
16,COc1ccc(-c2coc3c2c(C)cc2oc(=O)cc(C)c23)cc1,inactive: -15.6%
17,O=C(CSc1n[nH]c(-c2ccccc2Cl)n1)N1CCN(c2ccccc2F)CC1,inactive: -11%
18,CCOc1ccc(N(CC(=O)NCc2ccc(Cl)cc2)S(=O)(=O)c2c(C)noc2C)cc1,inactive: -9.85%
19,COc1ccc(CCN2C(=O)N(c3ccc(F)cc3)C(=O)C2CC(=O)Nc2ccc(F)c(F)c2)cc1 (stereo not given),inactive: -7.6%
20,Cc1cc(NC(=O)Nc2csc3c2CCCC3)ccc1Br,inactive: -43.1%
21,COCCCNC(=O)C1CCC(Cn2c(=O)c3sccc3n(Cc3ccc(F)cc3)c2=O)CC1 (stereo not given),inactive: -13%
22,Cc1cccc(N2CCN(C(=O)c3oc(=O)c4ccccc4c3-c3ccccc3)CC2)c1C,inactive: 1.06%
23,Cc1c(NC(=O)c2ccc(N3CCC(C)CC3)c([N+](=O)[O-])c2)cccc1-c1nc2ccccc2o1,inactive: -27%
24,COc1ccc(CCNC(=O)CCc2c(C)nc3c(c(C)nn3-c3ccccc3)c2C)c(OC)c1,inactive: -3.89%

row,Structure (SMILES),activation
1,Cc1cccc(N(C)C(=S)Oc2ccc3c(c2)CCC3)c1,inactive: -14.4%
2,COc1ccccc1C(=O)Nc1nnc(SCc2cc(=O)n3ccc(C)cc3n2)s1,inactive: -5.18%
3,CCc1cccc(C)c1NC(=O)C(C)Sc1nc2c(c(=O)[nH]1)CCCC2 (stereo not given),inactive: -1.37%
4,COc1ccc(-c2noc(N3CCN(c4cccc(C)c4C)CC3)n2)cc1OC,inactive: -5.34%
5,Cc1ccc(OCc2ccc(-c3nc(C#N)c(N4CCC(C)CC4)o3)o2)cc1,inactive: -13.2%
6,Cc1cc(C)cc(NC(=O)c2sc3nc(-c4cc5ccccc5oc4=O)[nH]c(=O)c3c2C)c1,inactive: -15.5%
7,COC(=O)c1c(C)sc(-c2c(-c3cccc(Cl)c3)[nH]c3c2c(=O)[nH]c(=O)n3C)c1O,inactive: -15.4%
8,CCc1ccccc1NC(=O)C1CCN(C2=NS(=O)(=O)C(c3ccc(C)c(C)c3)=C2C)CC1,inactive: 0.274%
9,COc1ccc(C(=O)CN2C(=O)N(c3cc(C)ccc3C)S(=O)(=O)c3ccccc32)cc1,inactive: -8.76%
10,C=CC(=O)Nc1cc2c(Nc3ccc(F)c(Cl)c3)ncnc2cc1OCCCN1CCOCC1,inactive: -8.26%
11,CCCNC(=O)CCC(=O)N1Cc2ccccc2Oc2ncccc21,inactive: -2.81%
12,CCOC(=O)c1c(C)oc2nc(C)nc(NC(C)c3ccccc3)c12 (stereo not given),inactive: -10.5%
13,CNC[C@H](O)c1ccc(O)c(O)c1,inactive: -6.52% [at 23.8 µM]
14,CC1=C(C(=O)OCc2ccc(C)cc2)C(c2ccccc2Cl)CC(=O)N1 (stereo not given),inactive: -5.39%
15,Cc1nc2c3ccccc3nc(NNC(=O)CCC(=O)N3CCN(c4ccccc4)CC3)n2n1,inactive: -9.6%
16,Cc1cccc(OCC(=O)Nc2ccc3c(c2)nc(CCNC(=O)c2ccco2)n3C)c1,inactive: -11.9%
17,CCOc1ccc(CNC(=O)c2ccc(CS(=O)c3ccccc3)o2)cc1 (stereo not given),inactive: -4.87%
18,O=C(C1CCN(S(=O)(=O)c2cccc3nonc23)CC1)N1CCN(c2ccccc2)CC1,inactive: 5.38%
19,COc1ccc(NC(=O)c2nnn(Cc3ccc(Br)cc3F)c2N)c(OC)c1,inactive: -1.81%
20,CN1CCN(CCCN2c3ccccc3Sc3ccc(C(F)(F)F)cc32)CC1,inactive: -14.5%
21,Cc1ccc(Cl)cc1N1CCN(CCNC(=O)Nc2ccc(Cl)cc2)CC1,inactive: -3.63%
22,COc1ccc(N2CCN(C(=O)c3nc(-c4ccc(Cl)cc4)n4c3CCCCC4)CC2)cc1,inactive: -23.8%
23,Cc1ccc(N2CC(NC(=O)c3ccc4c(c3)OCO4)CC2=O)cc1 (stereo not given),inactive: -16.1%
24,Cc1ccc(-n2c(SCC(=O)Nc3cccc(Cl)c3)nc3n[nH]c(C)c3c2=N)cc1,inactive: -27.9%

row,Structure (SMILES),activation
1,CC(=O)N1CCCc2ccc(NS(=O)(=O)c3ccc(F)cc3F)cc21,inactive: -8.96%
2,Cc1ccccc1NC(=O)Cn1nc(-c2ccc(F)cc2)c2cnc3ccccc3c21,inactive: -2.41%
3,CS(=O)(=O)N1CCc2cc(C(=O)N3CCN(c4ccc(F)cc4)CC3)ccc21,inactive: 2.97%
4,CCc1ccccc1NC(=O)CSc1nnc(CC)c(CC)n1,inactive: -12.9%
5,Cc1ccc2nc(NC(=O)c3cc(=O)c4cc(Cl)ccc4o3)sc2c1,inactive: -8.77%
6,Cn1c(Oc2ccc(F)cc2)nc2c1c(=O)n(Cc1ccccc1Cl)c(=O)n2C,inactive: -11.9%
7,CC(=O)N1CCc2c(sc3c2c(=O)n(-c2ccc(C)cc2)c(=O)n3CC(=O)Nc2ccccc2)C1,inactive: -1.66%
8,O=C(NCCc1ccc(Cl)cc1)c1ccc(CS(=O)(=O)Cc2ccccc2F)o1,inactive: -6.45%
9,CCOc1ccc(-c2c(C)nn3c(C)c(C(=O)NCc4ccc(C)o4)cnc23)cc1OCC,inactive: -20.5%
10,Cc1cc(N2CCC(C)CC2)nc2ccc(NC(=O)/C=C/c3cccc(Cl)c3)cc12,inactive: -9.45%
11,COC(=O)Nc1nc2ccc(C(=O)c3cccs3)cc2[nH]1,inactive: -16.9%
12,CC(C)c1ccc(Nc2c(-c3ccccc3O)nc3cnccn23)cc1,inactive: -9.94%
13,COc1ccc(Cn2ccc3nc(C)c(C(=O)Nc4ccc(C)c(F)c4)cc3c2=O)cc1,inactive: -11.9%
14,Cc1ccc(-c2cc(C(=O)NCc3ccccc3)c3c(-c4ccc(C)cc4)[nH]nc3n2)cc1,inactive: -6.66%
15,COC(=O)c1c(NC(=O)c2ccccc2C(=O)O)sc2c1CCCC2,inactive: -16.4%
16,COc1ccccc1NC(=O)c1c(NC(=O)c2ccccc2F)sc2c1CCC2,inactive: 10.4%
17,CCSc1nc2c(c(=O)[nH]c(=O)n2C)n1CC(O)COc1ccc(Cl)cc1 (stereo not given),inactive: -10.6%
18,COc1ccc(N2CCN(C(=O)c3ccc4c(c3)CCN4S(C)(=O)=O)CC2)cc1,inactive: -1.21%
19,Cc1nc(SCC(=O)Nc2ccc(Br)cc2)[nH]c(=O)c1Cc1ccccc1,inactive: -37.6%
20,Cc1c(Cl)cccc1NC(=O)Cn1nc(C)c2sc3ccccc3c2c1=O,inactive: -26.1%
21,Cc1ccc(C)c(S(=O)(=O)c2nnn3c2nc(Nc2ccc(F)c(Cl)c2)c2sccc23)c1,inactive: -14.5%
22,CCc1ccc(OCC(=O)NCc2nc(-c3cccc(C)c3)no2)c(Br)c1,inactive: -25.7%
23,Cc1ccc2c(c1)N(C(=O)N1CCC(C(=O)NCc3ccco3)CC1)CC(C)O2 (stereo not given),inactive: -11.1%
24,Cc1ccc(S(=O)(=O)CCC(=O)N2CCN(c3nc4c(C)c(Cl)ccc4s3)CC2)cc1,inactive: -42.5%

row,Structure (SMILES),activation
1,CCCCOC(=O)c1ccc(NC(=O)Cc2coc3ccc(C(C)C)cc23)cc1,inactive: -10.9%
2,CC(=O)N1CCC2(CC1)OC(=O)C(C)=C2C(=O)Nc1ccccc1C(F)(F)F,inactive: 3.69%
3,CCOC(=O)C1CCN(C(=O)Cn2ncc3c([nH]c4ccc(C)cc43)c2=O)CC1,inactive: 4.13%
4,Cc1cccc(N(CC(=O)NCCSc2ccc(Cl)cc2)S(=O)(=O)c2ccccc2)c1C,inactive: -14.5%
5,COc1cc(C(=O)N2CCc3c([nH]c4ccccc34)C2c2ccccc2)cc(OC)c1OC (stereo not given),inactive: -27.8%
6,Cc1cccc(C(=O)Nc2nc(-c3ccc(Br)cc3)ns2)c1,inactive: -8.22%
7,COc1ccccc1CCNC(=O)Cn1ccc2cc(S(=O)(=O)N3CCCCCC3)ccc21,inactive: -19.2%
8,CCc1nnc(SCc2nc(-c3ccc(OC)cc3)oc2C)c2cc3sccc3n12,inactive: -6.17%
9,COc1cccc(-c2nn(C)c3sc(C(=O)N4CCN(c5cccc(C)c5)C(C)C4)cc23)c1 (stereo not given),inactive: -11.7%
10,Cc1ccc(C)c(N2CCN(C(=O)c3cc(S(=O)(=O)N4CCCC4)cn3C)CC2)c1,inactive: -15.2%
11,CCOC(=O)C1CCC(CN(Cc2c(Cl)cccc2Cl)S(=O)(=O)c2ccc(F)cc2)CC1 (stereo not given),inactive: -17.8%
12,CN(C)CCN1C(=O)c2ccccc2N(C)c2ccccc21,inactive: -8.41%
13,CCCC(=O)OC[C@@H](OC(=O)CCC)[C@@H](OC(=O)CCC)[C@H](Cn1c2nc(=O)[nH]c(=O)c-2nc2cc(C)c(C)cc21)OC(=O)CCC,inactive: -4.91%
14,CSc1ncc(C(=O)N2CCN(c3ccc(F)cc3)CC2)c(C)n1,inactive: -9.97%
15,CC(S)C(=O)NCC(=O)O (stereo not given),inactive: -6.99%
16,CCCC(=O)O[C@]1(C(=O)COC(=O)CC)CC[C@H]2[C@@H]3CCC4=CC(=O)CC[C@]4(C)[C@H]3[C@@H](O)C[C@@]21C,inactive: -16% [at 23.8 µM]
17,COc1ccc(NC(=O)Cn2cnc3sc(C)c(S(=O)(=O)N4CCN(C)CC4)c3c2=O)cc1OC,inactive: -1.34%
18,CCOc1ccc(CNC(=O)c2cc3oc4ccccc4c3n2C)cc1,inactive: -15.5%
19,Cc1ccc(C)c(NC(=O)Cn2cc(C(=O)c3ccncc3)c(=O)c3cc(F)ccc32)c1,inactive: -14.8%
20,O=C(CSc1nc2c(c(=O)[nH]1)CCC2)Nc1ccccc1F,inactive: -12.2%
21,CN(C)c1ccc(CNc2nc(-c3ccco3)nn2S(=O)(=O)c2ccc3ccccc3c2)cc1,inactive: -7.7%
22,Cc1cc(C)c2c(CC(=O)N(Cc3ccc(N(C)C)cc3)Cc3ccco3)coc2c1,inactive: -18.7%
23,Cc1ccc(CCNC(=O)CN(c2ccc(C)cc2)S(=O)(=O)c2c(C)noc2C)cc1,inactive: 5.26%
